54 molecules from ChEMBL document CHEMBL4888484, “Replenishing the malaria drug discovery pipeline: Screening and hit evaluation of the MMV Hit Generation Library 1 (HGL1) against asexual blood stage Plasmodium falciparum ,using a nano luciferase reporter read-out” (2022) can be followed below.

Each structure is given as a SMILES string. Out of some 150,000 compounds screened, about 540 (0.36%) showed an effect of 50% or more. The list shows a part of the results.

The % Inhibition is the relative decrease from the control value, in per cent.

This assay deals with Plasmodium falciparum. Briefly: Primary screen in NF54 nanoGlo assay, in single point, at 2uM, 72h; a lower Z score goes with more inhibition. It counts as functional, Erythrocyte. The conditions noted are these: timepoint 72 hour.
In the case of `O=C(Nc1ccc(OC(F)(F)Cl)cc1)NS(=O)(=O)Oc1ccccc1Cl`, the “% Inhibition” value is listed as 0% and the Z score is -0.03.

Consider `COc1cccc(CNC(=O)COc2nc(C)nc3onc(-c4ccc(F)cc4)c23)c1`, for which the “% Inhibition” value was -1% and the Z score is 0.17.

`CC[C@@H](c1ccncc1)n1ccnc1-c1cc(OC)c2c(c1)OCO2`: the “% Inhibition” value is listed as -21% and the Z score is on record as 2.73.

On to `CC[C@H]1OCC[C@@H]1NC(=O)NCC1CCCn2ccnc21` (stereo partly drawn), for which the “% Inhibition” value is listed as 1% and the Z score is given as -0.16.

`C[C@H]1CS(=O)(=O)CCN1C(=O)NCc1ccc(C2CCCCC2)cc1`: the “% Inhibition” value is given as -10% and the Z score worked out at 1.44.

Take `Cc1nc2ccc(NCCn3c(C)nc4ccccc43)nn2n1`: the “% Inhibition” value is on record as -2% and the Z score was determined as 0.38.

On to `CN(Cc1cncn1C)[C@@H](C(=O)O)c1cccc(Br)c1`, for which the “% Inhibition” value is listed as -2% and the Z score is listed as 0.46.

On to `CN(C)CC1CCN(c2ccc(NC(=O)C3=COCCC3)cc2)CC1`, for which the “% Inhibition” value is given as -8% and the Z score is given as 0.71.

In the case of `CO[C@@H](CS(=O)(=O)Nc1ccc(CO)cc1)C1CCCC1`, the “% Inhibition” value is -17% and the Z score stood at 2.24.

Regarding `COCCC(=O)N1CC[C@@H]2OCc3cccc(c3)Oc3ccc(cc3)CCC(=O)N(CCCO)CC(=O)N[C@H]2C1`, the “% Inhibition” value is reported as -22% and the Z score was 2.85.

Regarding `O=C(CN1CCOCC1)Nc1ccccc1C(=O)Nc1ccc(Cl)cc1`, the “% Inhibition” value is -18% and the Z score turned out to be 2.39.

With `Cn1cc(C(N)=O)cc1C(=O)NC[C@@H]1C[C@H]1c1ccccc1`, the “% Inhibition” value is 1% and the Z score is -0.12.

For `CCCCC(=O)N1CCN(c2ccc(=O)n(-c3cccc(Cl)c3)n2)CC1`, the “% Inhibition” value is on record as -11% and the Z score turned out to be 1.92.

As for `Cc1ccc(C)c(CN2CCCN(c3ccc(C)cc3NS(=O)(=O)c3cccc(Cl)c3)C2=O)c1`, the “% Inhibition” value is -8% and the Z score is 0.97.

As for `CC(=O)N[C@H]1C[C@H](c2nnc(CN3CCN(c4ncccn4)CC3)n2C)C1`, the “% Inhibition” value is given as -11% and the Z score amounted to 1.8.

With `O=C1NCCOCCN(S(=O)(=O)c2ccc3c(c2)CCC3)[C@H]2CCC[C@@H]12`, the “% Inhibition” value is on record as -2% and the Z score came to 0.22.

On to `CCC(C)(C)C(=O)Nc1cc(C)[nH]c(=O)n1`, for which the “% Inhibition” value is recorded as -5% and the Z score was found to be 0.7.

`O=C1CCCC1C1COCCN1C(=O)c1cnn2ccccc12` (stereo not drawn): the “% Inhibition” value is -6% and the Z score amounted to 0.85.

With `Cc1cc(O)nc([C@H](C)N2CCN(C(=O)c3ccccc3OC(F)F)CC2)n1`, the “% Inhibition” value was found to be 2% and the Z score is -0.34.

Turning to `Cc1cc(N2CCCC2)nc(CNC(=O)c2ccccc2)n1`, the “% Inhibition” value is -11% and the Z score stood at 1.76.

Turning to `C#CCN(C)S(=O)(=O)CC1CCC1`, the “% Inhibition” value was -8% and the Z score amounted to 0.75.

In the case of `CC(C#N)CN(C)c1ncc(C#N)c(N(C)CC(C)C#N)n1` (stereo not drawn), the “% Inhibition” value was 7% and the Z score was -1.36.

As for `CN(Cc1cc(Cl)cc(Cl)c1)Cc1nnc2n1CCCCC2`, the “% Inhibition” value is -10% and the Z score amounted to 1.19.

For `Cc1ccc(CCC(=O)NC(C)(C)C)c(C)c1`, the “% Inhibition” value was -4% and the Z score amounted to 0.84.

As to `CCCc1noc(CN(CC)[C@@H](C)COC)n1`, the “% Inhibition” value is -8% and the Z score is recorded as 0.81.

In the case of `CC(C)c1nc(CN(C)C(=O)c2cn3cccnc3n2)no1`, the “% Inhibition” value is reported as -22% and the Z score worked out at 1.99.

`CCNC(=O)c1ccc(N[C@@H]2c3ccccc3C[C@@H]2O)nc1`: the “% Inhibition” value is recorded as -9% and the Z score is given as 1.37.

As for `Cc1ccccc1CNC(=O)Cn1c(C)cc(-c2nnc(-c3ccc(F)cc3)o2)c1C`, the “% Inhibition” value was -24% and the Z score is 4.67.

On to `COc1ccc(N2CCN(C(=O)Nc3snnc3C(=O)N3CCOCC3)CC2)cc1`, for which the “% Inhibition” value was -4% and the Z score was 0.48.

For `COc1cc(C)ccc1C(=O)N[C@H]1CCCNC1=O`, the “% Inhibition” value was determined as 1% and the Z score is on record as -0.19.

Turning to `NC1CC(NC(=O)c2ccc(C3CCOCC3)cc2)C12CCC2` (stereo not drawn), the “% Inhibition” value is -2% and the Z score is listed as 0.47.

`CCOC(=O)C[n+]1cc(-c2ccc3ccccc3n2)cc2ccccc21`: the “% Inhibition” value is on record as 5% and the Z score is -0.74.

For the molecule `Cc1ccc(S(=O)(=O)CC(=O)Nc2ccccc2-c2nc3ccccc3s2)cc1`, the “% Inhibition” value is given as -12% and the Z score is on record as 2.29.

As for `CC(C)C(NC(=O)C1CCCCC1C)C(=O)O` (stereo not drawn), the “% Inhibition” value is reported as -5% and the Z score is 0.58.

Take `O=S(=O)(c1cc(-c2nc(-c3ccc(Cl)cc3)no2)cs1)N1CCc2ccccc21`: the “% Inhibition” value is on record as -5% and the Z score came out at 0.63.

Take `CC(C)N1CCC(CC(=O)N[C@H](C(=O)O)c2cccc(F)c2F)CC1`: the “% Inhibition” value is -21% and the Z score was 1.93.

Regarding `O=C(Cn1nccn1)NCC[C@H]1CCCOC1`, the “% Inhibition” value was -9% and the Z score is 1.62.

Consider `CC1CN(CC(=O)c2c[nH]c(C(=O)N3CCCC3)c2)C(C)CO1` (stereo not drawn), for which the “% Inhibition” value is reported as -5% and the Z score came to 0.64.

For the molecule `O=C(CCc1cncs1)NC1C2CC1N(CCOCc1ccccc1)C2` (stereo not drawn), the “% Inhibition” value was 1% and the Z score was -0.16.

As to `CNC(=O)NC1CN(c2nc3cc(Br)ccc3o2)C1`, the “% Inhibition” value is -4% and the Z score was 0.67.

Consider `O=C(COc1cccc(-c2noc(-c3ccco3)n2)c1)NCc1ccccc1`, for which the “% Inhibition” value came out at 0% and the Z score turned out to be 0.02.

In the case of `CN(Cc1ccnn1C)C(=O)NC[C@H]1CC[C@@H](CO)O1`, the “% Inhibition” value is reported as -9% and the Z score was 1.56.

In the case of `O=C([C@@H]1CC=CCC1)N1CCC(N2C(=O)COC2=O)CC1`, the “% Inhibition” value is -10% and the Z score was 1.84.

Consider `CCCCCC(=O)N1CCC(N(CC)S(C)(=O)=O)CC1`, for which the “% Inhibition” value was -3% and the Z score was 0.44.

`CCOC1CC(NC(=O)[C@H]2CCC(=O)N2)C1(CC)CC` (stereo partly drawn): the “% Inhibition” value was -9% and the Z score turned out to be 1.76.

On to `COC(=O)c1cc(C)nc2c1c(=O)n(CC(=O)Nc1ccccc1C)c(=O)n2-c1ccccc1`, for which the “% Inhibition” value was determined as 0% and the Z score is 0.05.

For the molecule `CCN(CC)c1onc(-c2ccccc2)c1CN(Cc1ccccc1)C(=O)CC(C)C`, the “% Inhibition” value is recorded as -4% and the Z score came out at 0.51.

For `CC(=O)N(C)c1ccc2c(c1)NC(=O)C[C@@H]2c1cc(C)ccc1F`, the “% Inhibition” value is on record as -8% and the Z score is 1.33.

In the case of `COc1ccc(NC(=O)Nc2c(-c3ccccc3)nn(-c3ccccc3Cl)c2N)cc1`, the “% Inhibition” value was 3% and the Z score is -0.41.

As to `CC(C)(C)OC(=O)[C@@]12CCC[C@H]1CN(CCn1ccnc1)C2`, the “% Inhibition” value is -16% and the Z score was 2.29.

Take `Cc1ccc(NC(=O)N(C)C)cc1NC(=O)C(C)(C)N1CCOCC1`: the “% Inhibition” value is listed as -4% and the Z score stood at 0.66.

Consider `Cc1nn(C)c2nc(N[C@H]3CCN(C)C3=O)sc12`, for which the “% Inhibition” value is 0% and the Z score stood at 0.04.

For `COc1nsc(CN[C@H]2Cc3ccccc3[C@H]2OC)c1Cl`, the “% Inhibition” value is listed as -7% and the Z score is given as 1.25.

For the molecule `Cc1noc(NC(=O)CC2CC3CCC2C3)n1` (stereo not drawn), the “% Inhibition” value came to 13% and the Z score is on record as -1.12.
